# Experimental data from PubChem BioAssay AID1458 (National Center for Advancing Translational Sciences (NCATS), 2008).
# Out of some 210,000 compounds screened, about 5,900 (2.8%) were called active. Inconclusive means that the source gave no clear call. Such entries were picked first, then a sample of the others. Calls come from the whole dose curve; as a rule, active = well fitted activation curve with a large enough effect; inconclusive = small, poorly fitted or top-dose-only effect; inactive = no such curve, though single readings can be large or run the other way. Potencies beside an inconclusive call are fits to weak or partial responses and may not hold up.
# Assay: qHTS Assay for Enhancers of SMN2 Splice Variant Expression; note: nearly all actives have a fitted effect of over 55% in size; for activity change, positive = activation: % of control where 0% means no effect
# Settings: HEK293 SMN2-luciferase splicing reporter, luminescence, 30-36 h; activity change, positive = activation: at 46.1 µM (top of the series)
# How it was run: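 HEK293 cells carry an SMN2 minigene-luciferase reporter in which exon 7 inclusion puts luciferase in frame. Cells were seeded at 2000 cells/well, attached for 10-12 hours, then exposed to compounds for 30-36 hours at 37C before ONE-Glo luminescence.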
# Potency is the fitted concentration of half-maximal effect; tags give direction and shape of the fitted curve.
SMILES,Potency,"activity change, positive = activation"
O=C(Nc1nc(-c2nc3ccccc3s2)cs1)c1ccco1,active: 22.4 µM,–
Cc1ccc(O)c(NC(=S)NC(=O)c2ccccc2Cl)c1,"inconclusive: 15.8 µM [activator, partial curve]",–
COC(=O)C1=C(C)N(C(C)C)C(=O)C1(NC(=O)c1ccc(C(C)(C)C)cc1)C(F)(F)F (configuration not stated),–,inactive: 4.6%
CC1=NN(c2ccccc2)C(=O)C1(C)[N+](=O)[O-] (configuration not stated),"inconclusive: 20 µM [activator, single point]",–
FB(F)F,–,inactive: 24.6%
CCN(CC)S(=O)(=O)c1ccc(C(=O)NCCCn2ccnc2)cc1,"inconclusive: 3.98 µM [activator, single point]",–
COC(=O)N1CCC2(CCN(C(=O)Nc3ccc(OC)cc3)CC2)CC1,–,inactive: -11.5%
Cc1ccc(-c2ccc(CCC(=O)O)n2CC2CCCO2)cc1 (configuration not stated),"inconclusive: 3.16 µM [activator, single point]",–
O=C(CCCOc1ccc(Cl)cc1Cl)NCCCn1ccnc1,"inconclusive: 3.16 µM [activator, single point]",–
CCc1ccc(C(=O)COC(=O)CNC(=O)COc2ccccc2)cc1,"inconclusive: 3.55 µM [activator, partial curve]",–
COc1ccc(NC(=O)Nc2ccc3nsnc3c2)cc1,"inconclusive: 31.6 µM [activator, single point]",–
COc1ccc(CC(=O)Nc2cc(C)ccn2)cc1,"inconclusive: 0.0501 µM [activator, full curve, poor fit]",–
Cc1ccc(Nc2ccc(C(=O)O)cc2N)cc1,"inconclusive: 17.8 µM [activator, single point]",–
OC(CNCc1ccccc1C(F)(F)F)C(F)(F)F (configuration not stated),–,inactive: 1.17%
CCc1ccc(OCC(=O)Nc2ncn[nH]2)c(Br)c1,"inconclusive: 12.6 µM [activator, partial curve]",–
Cc1c(Cl)cccc1N/C(SCC(=O)N1CCCCCC1)=C(/C#N)c1nc2ccccc2s1,"inconclusive: 3.16 µM [activator, single point]",–
S=C(N/N=C/c1ccc2ncccc2c1)Nc1cccnc1,–,inactive: -10.4%
C=C(C)CSc1nc2ccccc2[nH]1,"inconclusive: 31.6 µM [activator, single point]",–
CCOC(=O)C1C(=O)C=C(Nc2ccccc2F)CC1c1ccccc1 (configuration not stated),–,inconclusive: 48.3% [activator]

SMILES,Potency,"activity change, positive = activation"
Cc1ccc(OCc2nc(-c3ccccn3)no2)cc1,active: 8.91 µM,–
COc1ccccc1NC(=O)C(Cc1ccc(Cl)cc1)c1nn[nH]n1 (configuration not stated),–,inactive: -10.5%
C=CCOC(=O)c1sc(NC(=O)c2ccco2)nc1C,"inconclusive: 17.8 µM [activator, single point]",–
COc1ccc(NS(=O)(=O)c2cccc(C(=O)N/N=C/c3ccccn3)c2)cc1,"inconclusive: 22.4 µM [activator, single point]",–
C=CCn1c(C)cc(C(=O)CN2NS(=O)(=O)c3ccccc3C2=O)c1C,–,inactive: -15.2%
COc1cccc(-c2nnc(NC(=O)C(C)C)o2)c1,"inconclusive: 11.2 µM [activator, partial curve]",–
Fc1ccccc1CSc1nnc(-c2ccccc2)o1,active: 35.5 µM,–
O=C(COc1ccc(Br)cc1)Nc1ccc(-c2nnc(-c3ccco3)o2)cc1,active: 8.91 µM,–
O=C1CC(c2cc([N+](=O)[O-])ccc2Cl)c2c(ccc3ccccc23)N1 (configuration not stated),–,inactive: -13.1%
NC(Cc1ccccc1)(C(=O)O)C(=O)O,"inconclusive: 0.631 µM [activator, single point]",–
CC(C(=O)N1CCCCC1)n1sc2ccccc2c1=O (configuration not stated),"inconclusive: 20 µM [activator, partial curve, poor fit]",–
Cc1ccnc(NC(=O)CSc2cc(=O)n(C)c3ccccc23)c1,"inconclusive: 31.6 µM [activator, single point]",–
O=C(CNC(=O)c1cccs1)c1ccc(F)cc1,active: 6.31 µM,–
CCCOc1ccc(CSc2ncn[nH]2)cc1,"inconclusive: 0.0032 µM [activator, full curve, poor fit]",–
Cc1csc(NC(=O)CSc2nnc(NC(=O)COc3ccc(Cl)cc3)s2)n1,"inconclusive: 8.91 µM [activator, partial curve, poor fit]",–
CCOC(=O)C1CCN(CC(=O)c2c(C)[nH]c3ccccc23)CC1,"inconclusive: 14.1 µM [activator, partial curve, poor fit]",–
O=c1oc2ccccc2cc1-c1nc2ccccc2o1,"inconclusive: 15.8 µM [activator, single point]",–
O=C(Oc1ccc(-c2ccccc2)cc1)N1CCOCC1,"inconclusive: 12.6 µM [activator, partial curve]",–
